Read counts are not given, so values of variants with three or more changes are uncertain.

Here are results for 167 variants from the RNAGym collection of RNA variant scans (doi:10.1093/nar/gkz1192).

B1: CPEB3 Ribozyme (parent)
chain: UAACAGGGGGCCACAGCAGAAGCGUUCACGUCGCAGCCCCUGUCAGAUUCUGGUGAAUCUGCGAAUUCUGCUGUAUAUCUC

In the data set the parent is B1. As to the kind of experiment: self-cleavage, relative activity (ratio to wild type); higher = more cleavage; in vitro, sequencing. In short, it runs like this: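 Barcoded CPEB3 ribozyme mutants, produced by rounds of error-prone PCR, self-cleaved while being transcribed with T7 RNA polymerase for 5 hours at 37°C and during a subsequent 15 min DNase I step before EDTA was added. Sequencing of template-switched cDNA on Illumina gave cleaved and total reads, and DNA sequencing assigned barcodes to variants. Each variant's relative activity is its cleaved/total read fraction divided by the unmutated ribozyme's fraction, averaged across three batches. A variant needed a minimum of 5 reads.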
For the variant C11A A18U U72C A77U, the self-cleavage came to 0.09.
As to C11U A21U U49A C50U A56U U58G A64G, the self-cleavage was 0.03.
In the case of G10U A28G U51A U54A A64U it was 0.07; in that of C11U U26C A28G U41C U43C U54A U80G, 0.11; in that of C11U C34U U41C U72C U74C, 0.3.
The figure for C11U G19A U54C U72A U74C is 0.06; for G10A U49C G53U U78C it is 0.05; for C11A A15U A64U it is 0.04.
In the case of C11G U25C A45G G70U U74A it was 0.34.
As to G10C C23U U26C U48C, the self-cleavage came out at 0.19.
In the case of G10A U31C U80C it was 0.11; in that of C11A A20G A21G G36U U67C U72C, 0.26; in that of G10U G19C U41A G55U, 0.05.
With C11A A15U A18U, the self-cleavage was determined as 0.3.
As to C11A A15U A18C, the self-cleavage was found to be 0.47.
Consider G10U U25C U41C A57C C71A, for which the self-cleavage was determined as 0.14.
With G10A U25C C29U A35G U51C A65G U67C, the self-cleavage was 0.04.
With C11U U48C U58C, the self-cleavage came out at 0.14.
In the case of C11U A13U U31A U41C it was 0.26; in that of C11G A28G A64G, 0.07; in that of C11G A35G U60C U66A A77G, 0.06.
Regarding G10A G22U U49A A57G U58C, the self-cleavage came out at 0.11.
In the case of G10A U25C G33U A35U U54C it was 0.06.
The figure for G10U A57G U60C is 0.04.
As for C11G A20G U41C A57U U58C U66C U78C, the self-cleavage amounted to 0.05.
In the case of G10A U26C U51A A57G U67C it was 0.05; in that of C12A A13C A21G U25A G30A A35G, 0.3.
With G10C C23U C40U A64U, the self-cleavage turned out to be 0.05.
For G10U A15U U54G, the self-cleavage amounted to 0.13.
The figure for C11U A18G U31A U60C U76A A77G is 0.02.
Regarding C11G U41C U49C A64G, the self-cleavage was found to be 0.08.
The figure for C11G C32G U41C C44U U51A U60A is 0.04; for C11U U26C G53A it is 0.12.
In the case of C11G C39G U60A A64U U67A U69A it was 0.05; in that of C11U A28U A65G U69A, 0.13; in that of C12A A18U A20U U54A, 0.26.
In the case of G10C A28G G42A A45G U58A it was 0.12; in that of C11U C37U A47U U69C, 0.03.
Regarding C11G A13G A47G A57G, the self-cleavage amounted to 0.48.
For the variant C11G C12G U80C, the self-cleavage turned out to be 0.48.
Take G10A G16A A64U: the self-cleavage worked out at 0.08.
In the case of G10A G24A U25C, the self-cleavage amounted to 0.22.
The figure for C11U A45C U66C A77G is 0.06; for C11G U26C A35G G63U A75G it is 0.37; for C11A U69C U72C it is 0.12.
In the case of C11G C37U A64U U67C U72A it was 0.06; in that of G10U A15G A18G C29U U66G, 0.07.
In the case of C11G A13C U25C U54G it was 0.07; in that of C11U C39G A47U U72A, 0.04; in that of C11U A47G A65G, 0.49.
For G10U A35G A56G C68G, the self-cleavage is 0.05.
The figure for G10A U41A U49C U51C U69C is 0.05.
On to C11U A28U U54A U69A U72C, for which the self-cleavage came to 0.09.
The figure for C12A A13C G61A U78C is 0.4.
The figure for C11U A20U U80C is 0.28; for C11G U26C A28G C34U A75U it is 0.05; for C11A A15G U26C U72C U78G it is 0.06.
The figure for C11U A28C A57G is 0.07; for C11U A28G A45G C79A it is 0.22.
For the variant C11U A21U G63A, the self-cleavage stood at 0.14.
For C12A A28G C40A A45U G70A U74C, the self-cleavage worked out at 0.14.
Turning to C11A U43C U51A U60C U74C, the self-cleavage was 0.27.
In the case of G10U C40U U66C U74C, the self-cleavage amounted to 0.12.
Take C11A A18U U51C U54G U60C: the self-cleavage came to 0.29.
G10A U31G C32G U54C U58A U66C: the self-cleavage was 0.03.
On to C11U U58A C79G, for which the self-cleavage is 0.12.
With C12A C17G G22U U41A, the self-cleavage was found to be 0.09.
In the case of G10A U31C A64G U80C it was 0.18.
Take C11G U25C U54C U74A: the self-cleavage is 0.08.
The figure for G10C A45C U48C is 0.14; for G10U A28U C50A U67C it is 0.09.
Take C11G U49C A64G: the self-cleavage was 0.07.
As to C11U U25C U26C U49C, the self-cleavage is 0.29.
In the case of G10C A15G G24A G36U G70C, the self-cleavage came to 0.09.
On to C11G G19A U25G U78A, for which the self-cleavage turned out to be 0.19.
In the case of C11U U49C A64U U69G U78A it was 0.03; in that of C12A G16A U60C U69A U72C, 0.1.
The figure for G10A G36C C40U U69C is 0.1; for G10A U31C A45U U48C A56U it is 0.07; for C11G U60A U67A it is 0.18.
With G10A U41C U49C U51C U69A, the self-cleavage turned out to be 0.06.
In the case of G10A U31A G36C U69C it was 0.06; in that of C11U A18U A35U, 0.16; in that of G10C C27G U31C A45G U58G A64U, 0.13.
As to C11G A21G A28U C32U U66C U69C U74A, the self-cleavage stood at 0.03.
For C11U U26C A56G A57U U74C, the self-cleavage was found to be 0.16.
Consider C11A A13G A35U, for which the self-cleavage is 0.12.
The figure for C11G G63A U78C is 0.16; for G10A U26G U51C A56C U60A A64G U69C it is 0.04.
G10A U31A U49C: the self-cleavage was 0.05.
The figure for C11A A35G A45G U76A is 0.27.
In the case of G10C A15G G33U A35U U72C it was 0.14.
In the case of G10U C17A A18G G61U A77G it was 0.04; in that of C12A A65G U69A, 0.33.
In the case of C12A A20G U43C U72C, the self-cleavage came to 0.46.
Take G10U U67C U72C A77U: the self-cleavage came to 0.13.
The figure for C11U U26C U41G U80C is 0.05.
The figure for C11G A15G G19A U41C A45U is 0.04; for G10C U26C A45G it is 0.15; for C11G A20G U26C it is 0.25.
In the case of C11A U69C U72C U76C U80A it was 0.08; in that of C12A A15U A18U C27G A47G A64G, 0.04.
On to C11G C23U U41C C79U, for which the self-cleavage was 0.08.
Take C11G A18G A56U A64U: the self-cleavage came out at 0.16.
The figure for G10C C11G U26C U49A G52A is 0.05; for C11U U25C U41C it is 0.22; for G10C U41G A57G it is 0.15.
The figure for G10A U25C U31C A45U U67C is 0.04; for C11U A35G C40U U54A U78A it is 1.24.
For G10C G16A U69C U74A, the self-cleavage turned out to be 0.28.
In the case of C11U A20U U25C U72C A77U it was 0.05; in that of G10C C11U A18G C40U U43C A45U U54G, 0.03; in that of C11G A18U A35U U74C, 0.51.
In the case of G10A U60C U69G it was 0.35.
In the case of G10U A13U C14A A18U C62G it was 0.12; in that of C11G C32A U41A U66C U78C, 0.19; in that of C11U A15G U60A, 0.45.
For the variant C11G A21G U25A A57G U60A U67C, the self-cleavage turned out to be 0.28.
The figure for G10A U49A U60A U69C is 0.07; for G10A U25C A35G U48A it is 0.27.
For the variant G10A U49A C50U, the self-cleavage turned out to be 0.07.
The figure for C11U A18U U49C U72C is 0.13; for G10C U43C U67C U74C it is 0.06.
As to G10C A15C A47G U72A, the self-cleavage is 0.3.
For the variant G10A G53A U60G U80G, the self-cleavage is 0.05.
With C11U U48C U74C A77G, the self-cleavage amounted to 0.21.
On to C11A C23G U25C U54C U69A, for which the self-cleavage amounted to 0.
The figure for G10A U31A A35G is 0.45; for G10U U54C G63A C68A it is 0.13; for C12A C39A A65G U67A it is 0.18.
Turning to G10U A20G A21G C38U U41A U74C U78C, the self-cleavage was 0.03.
With C11U U25A G63A, the self-cleavage amounted to 0.18.
In the case of C11U A13G U41C A56U A57U it was 0.14; in that of C11U A35G G53A U58C U66C U74C, 0.46; in that of C11U A20G U31A U48C U76G U78C, 0.05.
In the case of G10A U60C U69C U72C U80A it was 0.12; in that of C11A U25A U31C U54A, 0.14.
Take G10U A18U A45G: the self-cleavage stood at 0.01.
For C11G A15U A21G A45U, the self-cleavage was 0.14.
The figure for C11G A45C U60C is 0.05.
With G10A U66C U78C, the self-cleavage came out at 0.05.
The figure for C11G A18U U41A U48C U49C is 0.09; for C11U U31C U41A U43C A45U it is 0.14; for G10U C12G U26A U54C A57G U60A U67C it is 0.03.
Turning to C11A U43G U67C U72A, the self-cleavage worked out at 0.07.
The figure for G10C A35U A45G is 0.08.
Take G10U A28U A77G U78C: the self-cleavage stood at 0.3.
For C11A C23G C44A U54G A64G, the self-cleavage was 0.16.
In the case of G10C A28G U60C it was 0.12.
For the variant C11U U51C A64G, the self-cleavage was determined as 0.23.
The figure for C11G A20U A28G is 0.08; for G10U U48A A56G A65G it is 0.04; for G10U C37U U51A U58C U78G U80C it is 0.05.
The figure for C11U U25C A35U is 0.18; for C11U A13C G16U A21G C32U U51C U78C it is 0.04.
Regarding C11U A13G G19C U25C U60A U72C, the self-cleavage worked out at 0.03.
In the case of G10U C11G U25C C34G U43G it was 0.05.
Take C11A A13G U26C U41G: the self-cleavage is 0.05.
For C11A G24A U43C A56U, the self-cleavage was found to be 0.06.
In the case of C11G A15G C39G A45G A47G it was 0.03; in that of G10C A20G U49C G63A U72C U76C, 0.16; in that of C11G C23U U58C, 0.06.
The figure for C11U G30A U54C U69C is 0.05; for C11G A15U U54A A57G U78A U80C it is 0.42.
For C11G U43C U54G, the self-cleavage came to 0.23.
The figure for G10A U41C U72C is 0.81.
In the case of C11G A18U U54C it was 0.13.
